# In PubChem BioAssay AID1346428 (National Center for Advancing Translational Sciences (NCATS), 2018):
# Where “and” joins values, the source holds several entries; their conditions need not be identical. Identical values can stand only once. In all, about 48,000 compounds went through this assay and about 1,200 (2.5%) were called active. Another 2% or so got no clear call; they are omitted.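 Rule for the calls: active = activation of at least 60% and not above a set upper limit (about 1 call in 100 departs from these limits); inconclusive = activation of 40% to 60%, or above that upper limit; inactive = activation under 40%.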 This is one part of the list.
# Target: Probable G-protein coupled receptor 32 (Homo sapiens) (UniProt O75388)
# Sequence of UniProt O75388 (O75388 whole entry, looked up): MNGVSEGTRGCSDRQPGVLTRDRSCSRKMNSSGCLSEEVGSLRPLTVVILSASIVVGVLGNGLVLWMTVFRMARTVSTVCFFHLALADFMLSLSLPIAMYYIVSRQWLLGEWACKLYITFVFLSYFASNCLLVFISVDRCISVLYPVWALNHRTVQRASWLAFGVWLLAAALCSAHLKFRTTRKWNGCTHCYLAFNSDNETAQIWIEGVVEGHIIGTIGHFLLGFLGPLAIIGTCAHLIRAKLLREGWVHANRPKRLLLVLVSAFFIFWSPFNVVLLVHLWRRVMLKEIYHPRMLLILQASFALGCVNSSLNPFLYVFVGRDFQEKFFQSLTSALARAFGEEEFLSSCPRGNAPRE
# Experiment: qHTS for Agonists of Human Resolvin D1 Receptor DRV1
# Details: CHO-K1 GPR32 beta-arrestin PathHunter luminescence, 90 min; at 76.9 µM; active compounds read high; zero percent set by DMSO-only wells
# Outline: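 Beta-arrestin recruitment read-out: luminescence from complemented beta-Gal in CHO-K1 GPR32 PathHunter cells, measured 1 h after detection reagent at ambient temperature following 90 min compound exposure at 37 °C; DMSO served as basal (EC0) control.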
row,Structure (SMILES),activation
1,COCCN(CCOC)S(=O)(=O)c1ccc(C(=O)Nc2sc3c(c2C(N)=O)CCCC3)cc1,inactive: 1.04%
2,COc1ccc(S(=O)(=O)N2CCC(c3nc4ccccc4s3)CC2)cc1OC,inactive: 4.63%
3,O=C(Cn1ncc2c3ccccc3n(Cc3ccccc3)c2c1=O)NCCc1ccc(Cl)cc1,inactive: -5.26%
4,Cc1cccc(CSc2cn(CC(=O)N3CCOCC3)c3ccccc23)c1,inactive: -31.9%
5,O=C(Cn1nc2c(cc1=O)CCCC2)NCc1ccc(Cl)cc1,inactive: -5.77%
6,COc1cccc(NC(=O)Cn2nc(N3CCN(c4ccccc4)CC3)ccc2=O)c1,inactive: -15.6%
7,Cc1ccc(Cl)cc1-n1ncc2c(NCCc3ccccc3)ncnc21,active: 101%
8,CCCNC(=O)c1ccc2c(c1)N=C(CCC)c1ccccc1S2,inactive: -18.1%
9,CCN(C(=O)CN1C(=O)c2ccccc2Sc2ccc(C(=O)OC)cc21)c1cccc(C)c1,inactive: -26.8%
10,Cc1ccc(OCC(=O)Nc2ccc(OCc3cc(=O)n4ccsc4n3)cc2)cc1C,inactive: 8.27%
11,CCC(=O)N1CCc2cc(S(=O)(=O)NC(Cc3ccccc3)C(=O)NCc3ccccc3)ccc21 (centres undefined),inactive: -5.65%
12,COc1ccc(C(=O)c2ccccc2O)c(O)c1,inactive: -27.3%
13,Cc1ccc(NC(=O)Cn2c(=O)n(Cc3nc(-c4ccccc4)no3)c(=O)c3ccccc32)c(C)c1,inactive: -0.825%
14,CCCCNc1nc2c(S(=O)(=O)c3ccc(Br)cc3)nnn2c2ccsc12,inactive: -14.3%
15,CCC(=O)N1CCc2cc(Br)cc(S(=O)(=O)N3CCCC(C(=O)Nc4ccc(C)c(F)c4)C3)c21 (centres undefined),inactive: 10%
16,Cc1ccc(Nc2c(-c3ccccn3)nc3ccc(Br)cn23)cc1,inactive: -24.2%
17,COc1ccccc1NC(=O)c1c(-c2ccc(C)cc2)nnc2ccccc12,inactive: -25.2%
18,Cc1ccc2ccc3cc(C(=O)N4CCN(c5ccccc5F)CC4)nc3c2[nH]1,inactive: -1.02%
19,CC(C)(C)NCC(O)COc1cccc2c1C[C@H](O)[C@H](O)C2 (some centres undefined),inactive: -19.3%
20,CC(CCc1ccccc1)NC(=O)CSc1n[nH]c(-c2ccccc2)n1 (centres undefined),inactive: 13.5%
21,CCCCNC(=O)CCC(=O)NNc1nc2ccccc2c2nc(C)nn12,inactive: 6.1%
22,Cc1nn(C(C)C(=O)NCc2ccc(OC(C)C)cc2)c(=O)c2c1sc1ccccc12 (centres undefined),inactive: -16.4%
23,Cc1ccc(C(=O)N(Cc2ccc(N(C)C)cc2)CC2CCCO2)cc1 (centres undefined),inactive: -19.8%
24,COc1cc(C2CC(=O)Nc3cc4c(cc32)OCO4)cc(OC)c1O (centres undefined),inactive: 13.5%
25,Cc1c(C)n(Cc2ccc(Cl)cc2)c2ccc(C(=O)N3CCN(c4ccccc4F)CC3)cc12,inactive: -26.9%
26,COc1cccc(NC(=O)Cn2c(=O)oc3cc(S(=O)(=O)N4CCCCC4)ccc32)c1,active: 116%
27,Cc1ccc(C(=O)c2oc3ccccc3c2NC(=O)COc2ccc(Cl)c(C)c2)cc1,inactive: -13.6%

row,Structure (SMILES),activation
1,COc1ccc(OC)c(CCNC(=O)c2nc(-c3ccc(Cl)cc3)n3c2CCCCC3)c1,inactive: -13.9%
2,COCCc1ccc(OCC(O)CNC(C)C)cc1 (centres undefined),inactive: -25.5% and inactive: -9.16%
3,CC(C)COc1ccc(C(=O)N2CCCCC2CCN2CCOCC2)cc1 (centres undefined),inactive: -2.34%
4,CCc1cccc(CC)c1NC(=O)CN(C)S(=O)(=O)c1ccc2c(c1)n(C)c(=O)c(=O)n2C,inactive: -4.66%
5,CSc1nn(Cc2ccc(F)cc2)c(N(C(C)=O)C(C)=O)c1S(=O)(=O)c1ccccc1,inactive: 25.8%
6,COc1cccc(CNC(=O)C2CCCN(c3nnc(-n4c(C)ccc4C)s3)C2)c1OC (centres undefined),inactive: -5.47%
7,Cc1ccc(C(=O)CSc2nc(C)cc(C)c2C(=O)Nc2cccc(C)c2)cc1,inactive: -25.8%
8,CC(=O)N1CCCc2ccc(NC(=O)c3ccc(OC(C)C)cc3)cc21,inactive: 1.37%
9,Cc1ccc2nc(COc3ccccc3NC(=O)Nc3ccc(F)c(Cl)c3)cc(=O)n2c1,inactive: -9.45%
10,CCSc1nc(-c2ccc(OC)cc2)nc2c1Cc1c(CO)cnc(C)c1O2,inactive: 1.06%
11,Cc1cccc(NC(=O)CSc2cn(CC(=O)N3CCOCC3)c3ccccc23)c1C,inactive: -24.4%
12,O=C(Nc1ccc(OC(F)(F)F)cc1)c1cc(-c2ccc(Cl)cc2)on1,inactive: 22.1%
13,Cc1nc2c3ccccc3nc(NNC(=O)CCC(=O)N3CCN(c4ccc(F)cc4)CC3)n2n1,inactive: -36.1%
14,Cc1ccc(-n2c3nc(=O)n(C)c(=O)c-3cc3ccccc32)c(C)c1,inactive: 3.49%
15,CCC(=O)N1CCc2cc(Br)cc(S(=O)(=O)N3CCCC(C(=O)NCc4ccc(C)cc4)C3)c21 (centres undefined),inactive: -0.543%
16,COc1ccc(/C=C/c2nc(C#N)c(N3CCCCC3)o2)cc1OC,inactive: 3.56%
17,COc1ccc(S(=O)(=O)c2c(Nc3cccc(Cl)c3)sc(C(=O)c3ccccc3)c2N)cc1,inactive: -48.8%
18,COc1cccc2cc(-c3nc4sc5c(c4c(=O)[nH]3)CCC(C(C)(C)C)C5)c(=O)oc12 (centres undefined),inactive: 6.66%
19,CCCCN(Cc1cc2cc(C)ccc2[nH]c1=O)C(=O)c1cccc(Cl)c1,inactive: -3.33%
20,Cc1cc2c(cc1S(=O)(=O)NCc1ccc(F)cc1)OCCN2C,inactive: -26.1%
21,Cc1ccc2c(=O)cc(C(=O)Nc3c(C)cccc3C)oc2c1,inactive: 7.27%
22,CCc1ccc(NC(=O)Cn2ncn3c(cc4ccccc43)c2=O)cc1,inactive: -22.9%
23,COc1ccc(N2CCN(CCCNC(=O)c3c(C)nn(-c4ccc(F)cc4)c3-n3cccc3)CC2)cc1,active: 63.4%
24,CCOC(=O)N1CCc2c(sc3c2c(=O)n(-c2ccc(CC)cc2)c(=O)n3Cc2ccc(F)cc2Cl)C1,inactive: -17.9%
25,COc1ccccc1N1CCN(C(=O)c2cc3c(=O)n(Cc4cccs4)ccc3nc2C)CC1,inactive: -19.5%
26,CCOc1ccc2nc(N3CCCC(C(=O)NCCc4ccc(Cl)cc4)C3)sc2c1 (centres undefined),inactive: -14.8%
27,CCOC(=O)c1c(NC(=O)Cc2coc3ccc(CC)cc23)sc2c1CCC2,inactive: -9.82%
